Target: T1, recombinant rat HMGB-1, Europium-labeled (rat, UniProt P63159 1-215, limits assumed, Europium label, molar ratio of HMGB-1 to Eu 1:5)
T1 construct: also called Europium-labeled HMGB-1; recombinant HMG1 (Thp-1 assay)
T1 sequence (looked up): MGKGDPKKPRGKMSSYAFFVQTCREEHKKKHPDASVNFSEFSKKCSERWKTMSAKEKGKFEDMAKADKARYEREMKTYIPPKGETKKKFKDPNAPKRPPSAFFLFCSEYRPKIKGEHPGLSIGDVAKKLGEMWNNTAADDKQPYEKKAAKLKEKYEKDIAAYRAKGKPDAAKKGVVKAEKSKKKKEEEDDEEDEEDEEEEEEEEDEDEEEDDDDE
Assay: inhibition of the binding of 2 nM Europium-labeled rat HMGB-1 to THP-1 cells, fluorescence at 615 nm
Procedure: HMG1 binding to THP-1 Cells: Recombinant rat HMGB-1 was labeled using Eu-labelling Kit from PerkinElmer. Molar ratio of HMGB-1 to Eu is 1:5. THP-1 were cultured as the protocol from ATCC. Cells were harvested and suspended at concentration 1×10⁶/ml in assay buffer containing 1×DELFIA L*R binding buffer (PerkinElmer), 50% of DELFIA stabilizer (PerkinElmer) and 0.05% of sodium azide. 100 μl of cells (1×10⁵) was added into wells in 96 well cell culture plate. The plate was incubated with gentle shaking at 4° C. for one hour. 100 μl of assay buffer containing 2 nM of Europium-labeled HMGB-1 mixed with various concentrations (333, 166.5, 83.25, 41.6, 20.8, 10.4 and 5.2 nM) of human anti-HMGB1 antibodies E11 or G2 or soluble human RAGE-Fc, were added into each wells respectively. After one hour incubation with gentle shaking at 4° C., the cells were washed four times with 1×L*R wash buffer (PerkinElmer) by centrifuging at 1200 rpm×5 min. 200 μl of enhancement solution was added into each well to dissociate and enhance Eu fluorescence at 615 nm. The fluorescence was measured with Wallac Victor Fluorometer. Assay was performed in triplicate and human antibody R3-47 was used the negative isotype control.

IC50 (read off the curve): ~80 nM
B1: soluble human RAGE-Fc (Fc fusion)
chain: not shown
notes: also called human-RAGE-Fc fusion protein; not shown: Fc part not described

Reference: patent US20080311122A1 (AstraZeneca / MedImmune, published 2008)
